Columns and labels:
rat cKIT = assay: SPR (Biacore) affinity measurement; type: binding; details: 25° C., 1:1 model
Experimental: (§1) Affinity of the antibodies to cKIT species orthologues and also to cKIT was determined using SPR technology using a Biacore® 2000 instrument (GE Healthcare, Pittsburgh, PA) and with CM5 sensor chips.
(§2) Briefly, HBS-P (0.01 M HEPES, pH 7.4, 0.15 M NaCl, 0.005% Surfactant P20) supplemented with 2% Odyssey® blocking buffer (Li-Cor Biosciences, Lincoln, NE) was used as the running buffer for all the experiments. The immobilization level and analyte interactions were measured by response unit (RU). Pilot experiments were performed to test and confirm the feasibility of the immobilization of the anti-human Fc antibody (Catalog number BR100839, GE Healthcare, Pittsburgh, PA) and the capture of the test antibodies.
(§3) For kinetic measurements, the experiments were performed in which the antibodies were captured to the sensor chip surface via the immobilized anti-human Fc antibody and the ability of the cKIT proteins to bind in free solution was determined. Briefly, 25 μg/ml of anti-human Fc antibody at pH 5 was immobilized on a CM5 sensor chip through amine coupling at flow rate of 5 μl/minute on all two flow cells to reach 10,500 RUs. 0.1-1 μg/ml of test antibodies were then injected at 10 μl/min for 1 minute. Captured levels of the antibodies were generally kept below 200 RUs. Subsequently, 3.125 −50 nM of cKIT receptor extracellular domains (ECD) were diluted in a 2-fold series and injected at a flow rate of 40 μl/min for 3 min over both reference and test flow cells. Table of tested ECDs is listed below (Table 6). Dissociation of the binding was followed for 10 min. After each injection cycle, the chip surface was regenerated with 3 M MgCl2 at 10 μl/min for 30 seconds.

mouse cKIT = target: T1, mouse cKIT (Mus musculus, UniProt P05532); assay: SPR (Biacore) affinity measurement; type: binding; details: 25° C., 1:1 model
T1 construct: cKIT receptor extracellular domains (ECD) were diluted in a 2-fold series
T1 sequence (P05532 25-527 limits assumed): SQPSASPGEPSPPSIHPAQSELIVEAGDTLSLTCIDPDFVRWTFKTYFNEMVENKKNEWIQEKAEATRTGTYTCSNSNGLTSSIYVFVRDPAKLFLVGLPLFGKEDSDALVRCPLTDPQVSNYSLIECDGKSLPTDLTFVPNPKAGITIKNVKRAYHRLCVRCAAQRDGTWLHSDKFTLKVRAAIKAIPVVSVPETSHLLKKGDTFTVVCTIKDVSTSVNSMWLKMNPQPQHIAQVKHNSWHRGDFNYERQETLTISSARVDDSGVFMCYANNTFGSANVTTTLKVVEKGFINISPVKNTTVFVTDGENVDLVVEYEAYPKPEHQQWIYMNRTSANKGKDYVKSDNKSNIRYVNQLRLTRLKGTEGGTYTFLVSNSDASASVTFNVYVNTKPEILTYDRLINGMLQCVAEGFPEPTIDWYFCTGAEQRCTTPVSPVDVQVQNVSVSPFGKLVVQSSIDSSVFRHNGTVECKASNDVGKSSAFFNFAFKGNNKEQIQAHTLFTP
Experimental: as §1, §2, §3

human cKIT = target: T2, human cKIT (Homo sapiens, UniProt P10721); assay: SPR (Biacore) affinity measurement; type: binding; details: 25° C., 1:1 model
T2 construct: Human cKIT tr. variant 2 , residues 26-520-TAG; made in house; host or cells: HEK293 derived cell line 293FS, transient transfection
Experimental: as §1, §2, §3

[1] = system: cKIT positive NCI-H526 SCLC tumor xenograft; details: 10 mg/kg single dose IV, Day 21
Excerpt: For the structure of the Eg5 inhibitor 5B, see Table 1. […] Mice were enrolled in the study 13 days post implantation with average tumor volume of ˜182 mm^3-270 mm^3.

T2 sequence (P10721 with tags, fused parts or gaps isoform P10721-2): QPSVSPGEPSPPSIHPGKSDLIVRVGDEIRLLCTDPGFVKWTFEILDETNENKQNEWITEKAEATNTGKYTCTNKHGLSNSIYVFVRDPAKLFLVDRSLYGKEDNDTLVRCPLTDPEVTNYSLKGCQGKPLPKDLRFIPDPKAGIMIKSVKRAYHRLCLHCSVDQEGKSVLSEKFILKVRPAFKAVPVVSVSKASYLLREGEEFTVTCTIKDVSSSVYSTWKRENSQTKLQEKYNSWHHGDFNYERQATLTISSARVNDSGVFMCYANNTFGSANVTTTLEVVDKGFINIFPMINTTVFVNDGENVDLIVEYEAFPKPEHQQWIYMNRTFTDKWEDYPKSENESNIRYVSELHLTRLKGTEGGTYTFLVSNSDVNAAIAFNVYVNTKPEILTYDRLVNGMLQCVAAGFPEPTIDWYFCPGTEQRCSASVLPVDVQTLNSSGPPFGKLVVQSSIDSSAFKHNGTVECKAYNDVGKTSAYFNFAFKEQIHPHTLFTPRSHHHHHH

B1: 20507 (antibody)
heavy: QVQLVQSGAEVKKPGSSVKVSCKASGGTFSSYAISWVRQAPGQGLEWMGTIGPFEGQPRYAQKFQGRVTITADESTSTAYMELSSLRSEDTAVYYCARGGYISDFDVWGQGTLVTVSSASTKGPSVFPLAPSSKSTSGGTAALGCLVKDYFPEPVTVSWNSGALTSGVHTFPAVLQSSGLYSLSSVVTVPSSSLGTQTYICNVNHKPSNTKVDKRV[human IgG1 Fc not spelt out]
light: DIQMTQSPSSLSASVGDRVTITCRASQSISNYLAWYQQKPGKAPKLLIYDASSLQSGVPSRFSGSGSGTDFTLTISSLQPEDFATYYCQQYYYESITFGQGTKVEIKRTVAAPSVFIFPPSDEQLKSGTASVVCLLNNFYPREAKVQWKVDNALQSGNSQESVTEQDSKDSTYSLSSTLTLSKADYEKHKVYACEVTHQGLSSPVTKSFNRGEC
Rat cKIT
  Affinity to rat cKIT (nM): Not reactive
Mouse cKIT
  Affinity mouse cKIT (nM): Not reactive
Human cKIT
  Affinity human cKIT (nM): nanomolar level
  Kd: 1.8 nM
[1]
  Mean change of body weight (% ± SEM): 8.2 ± 1.2%
  Mean change of tumor volume (mm3 ± SEM): 1330 ± 49 mm3
  Mean change of tumor volume vs control (ΔT/ΔC) (%): 96%
  Survival (survivors/total): 5/5

Reference: patent US11833215B2, “CKIT antibody drug conjugates” (Novartis AG, priority 2014, dated 2023)
